The other results are listed elsewhere or left out. Single values are uncertain, as repeats are few or missing.
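Also: cell number obtained by counting DAPI-stained nuclei in high-throughput microscope images with image analysis software, screen run in 1,536-well plates.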

The subject of this assay is IPC-298. Briefly: cell count relative to DMSO control; melanoma cells; higher = more viable cells. To be noted: library dose: low library concentration; 72 h.
The compound `OCc1c[nH]c2ccccc12` [Indole-3-carbinol] + Nc1cccc2c1CN(C1CCC(=O)NC1=O)C2=O [lenalidomide] (first compound 0.8 µM, partner dose 1 µM) displayed a cell count of 102%. For `Clc1ccc(Nc2nnc(Cc3ccncc3)c3ccccc23)cc1` [vatalanib] + Cn1c(Nc2ccc(C(F)(F)F)cc2)nc2cc(Oc3ccnc(-c4ncc(C(F)(F)F)[nH]4)c3)ccc21 [CHIR265] (first compound 2 µM, partner dose 0.08 µM), the cell count is 67.3%. The compound `Cn1c(Nc2ccc(C(F)(F)F)cc2)nc2cc(Oc3ccnc(-c4ncc(C(F)(F)F)[nH]4)c3)ccc21` + C[C@]1(c2nc3c(C(N)=O)cccc3[nH]2)CCCN1 [Veliparib] (first compound 0.08 µM, partner dose 1.4 µM) returned a cell count of 56.9%.

Compound `OCc1c[nH]c2ccccc12` [Indole-3-carbinol] + Cc1nc(Nc2ncc(C(=O)Nc3c(C)cccc3Cl)s2)cc(N2CCN(CCO)CC2)n1 [dasatanib] (first compound 0.8 µM, partner dose 0.004 µM) came in with a cell count of 86.7%. Under `Cn1c(Nc2ccc(C(F)(F)F)cc2)nc2cc(Oc3ccnc(-c4ncc(C(F)(F)F)[nH]4)c3)ccc21` + COCC[n+]1c2c(n(Cc3cnccn3)c1C)C(=O)c1ccccc1C2=O [YM155] (first compound 0.08 µM, partner dose 0.0004 µM) stands 54.1%. On to `Clc1ccc(Nc2nnc(Cc3ccncc3)c3ccccc23)cc1` [vatalanib] + C=CCn1c(=O)c2cnc(Nc3ccc(N4CCN(C)CC4)cc3)nc2n1-c1cccc(C(C)(C)O)n1 [MK1775] (first compound 2 µM, partner dose 0.02 µM), for which the cell count came to 94.1%.

As for `Clc1ccc(Nc2nnc(Cc3ccncc3)c3ccccc23)cc1` [vatalanib] + Nc1cccc2c1CN(C1CCC(=O)NC1=O)C2=O [lenalidomide] (first compound 2 µM, partner dose 1 µM), the cell count is 97.4%.

Values taken from the supplement of paper PMC4604168 (melanoma cell lines).
